Results: PubChem BioAssay AID1347120 (National Center for Advancing Translational Sciences (NCATS), 2019)
The whole screen tested about 390,000 compounds, of which about 930 (0.24%) were called active. Inconclusive results, whose numbers are uncertain, are shown with a selection of clear calls. The call rests on the fitted dose curve; in most records, active means well fitted activation curve with a large enough effect; inconclusive means small, poorly fitted or top-dose-only effect; inactive means no such curve, though single readings can be large or run the other way. Potencies of inconclusive entries are doubtful fits and often do not repeat.

Test: qHTS for Suppressors of FUS Proteinopathy: Primary screen using FUS-linked yeast assay; further: nearly all actives have a fitted effect of over 55% in size;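 on growth rescue (activation): plate controls were DMSO vehicle for no effect and reference control for full effect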
Conditions: S. cerevisiae FUS-expressing, OD600, 24 h; Potency: growth rescue; growth rescue (activation): at 76.6 µM (top of the series)
Outline: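 Compound concentration series was pinned onto galactose-induced FUS-expressing yeast seeded at OD 0.005. Plates sat 24hr at 30C; absorbance at 600 nm gave growth. DMSO served as background control.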
Potency means the concentration at half of the fitted maximal effect; tags describe the fitted curve by direction and shape.

Q: Which Potency does the source give for `CCCCCC(=O)N[C@@H](c1ccccc1)[C@@H](O)C(=O)O[C@H]1C[C@@]2(O)[C@@H](OC(=O)c3ccccc3)C3[C@](C)(C(=O)[C@H](OC(C)=O)C(=C1C)C2(C)C)[C@@H](O)C[C@H]1OC[C@@]31OC(C)=O` (stereo partly specified) here?
A: inconclusive: 15.8 µM [activator, partial curve, poor fit]

Q: For `COc1ccccc1N(C)S(=O)(=O)c1ccc(C(=O)N(C)Cc2cccc(F)c2)cc1`, which Potency is on record?
A: inconclusive: 22.4 µM [activator, partial curve]

Q: With `COCc1ccccc1Cn1cnc2c1c(=O)n(C)c(=O)n2C` as the compound, how does the growth rescue (activation) read?
A: inconclusive: 53.1% [activator]

Q: Which Potency does the source give for `COc1ccccc1N(C)S(=O)(=O)c1ccc(Cl)c(C(=O)NNC(=O)c2ccccc2O)c1` here?
A: inconclusive: 14.1 µM [activator, partial curve]

Q: With `C[C@@H]1CN([C@@H](C)CO)C(=O)c2cc(C#CC3CCCCC3)cnc2O[C@@H]1CN(C)S(=O)(=O)c1ccc(F)cc1` as the compound, how does the Potency read?
A: inconclusive: 28.2 µM [activator, partial curve, poor fit]

Q: With `Cc1cccc(C)c1Cn1c(C)c(C(=O)NCc2ccccc2C(F)(F)F)sc1=O` as the compound, how does the Potency read?
A: inconclusive: 50.1 µM [activator, single point]

Q: For `COc1ccc(NS(=O)(=O)c2ccc3ccccc3c2)c2ncccc12`, which “growth rescue (activation)” value is on record?
A: inactive: -4.27%

Q: Which growth rescue (activation) does the source give for `CC(C)(C)c1ccc(C(=O)Oc2ccc3c(c2)OCC3=O)cc1` here?
A: inconclusive: 58.9% [activator]

Q: Which Potency does the source give for `O=C(c1ccc2c(c1)OCO2)N1CCC2(CC1)Oc1ccc(Cl)cc1C(=O)C21CC(c2cccnc2)=NO1` (stereo unspecified) here?
A: inconclusive: 50.1 µM [activator, single point]

Q: Which Potency does the source give for `O=C(Nc1nc2n(n1)C(c1ccc(F)cc1)C=C(c1ccccc1)N2)c1cccc([N+](=O)[O-])c1` (stereo unspecified) here?
A: inconclusive: 31.6 µM [activator, partial curve, poor fit]

Q: Which “growth rescue (activation)” value does the source give for `CCS(=O)(=O)N1CCc2cc(C(=O)Nc3ccc(OC)cc3OC)ccc21` here?
A: inactive: 24.3%

Q: With `CC(=O)c1cccc(NC(=O)c2nc(-c3ccccc3)n(-c3cccc(C)c3)n2)c1` as the compound, how does the Potency read?
A: inconclusive: 25.1 µM [activator, partial curve, poor fit]

Q: Which Potency does the source give for `Cc1ccc2occ(CC(=O)N3CCN(c4cccc(Cl)c4)CC3)c2c1` here?
A: inconclusive: 25.1 µM [activator, single point]

Q: Which “growth rescue (activation)” value does the source give for `NS(=O)(=O)c1cccc(NC(=O)CSc2nc3ccc(Cl)cc3[nH]2)c1` here?
A: inactive: 10.4%

Q: For `COc1ccccc1NC(=O)C1CCN(S(=O)(=O)c2ccc3c(c2)NC(=O)C(C)S3)CC1` (stereo unspecified), which Potency is on record?
A: inconclusive: 28.2 µM [activator, single point]

Q: Which “growth rescue (activation)” value does the source give for `O=c1c(Cc2ccc(Cl)cc2)c(O)ccn1Cc1cccc(Cl)c1` here?
A: inactive: -51.2%

Q: For `COc1ccccc1N1CCN(S(=O)(=O)c2ccc(-c3cnc(C4CC4)o3)cc2)CC1`, which Potency is on record?
A: inconclusive: 8.91 µM [activator, partial curve]

Q: For `COC(=O)c1ccc(C2c3[nH]c4ccccc4c3C[C@H]3C(=O)N(C4CC4)CC(=O)N23)cc1` (stereo partly specified), which Potency is on record?
A: inconclusive: 28.2 µM [activator, single point]

Q: With `Cc1ccc(OCc2nnc(-c3ccccc3)o2)cc1` as the compound, how does the Potency read?
A: inconclusive: 22.4 µM [activator, partial curve, poor fit]

Q: For `Cc1ccccc1NC(=O)CSc1nnc(-c2ccco2)c(-c2ccco2)n1`, which “growth rescue (activation)” value is on record?
A: inactive: 38.4%

Q: With `COc1ccc(-n2c(CCC(=O)O)ccc2-c2ccccc2)c(OC)c1` as the compound, how does the Potency read?
A: inconclusive: 8.91 µM [activator, partial curve, poor fit]

Q: With `NC(=NCCc1c[nH]c2ccccc12)NC(=O)OCc1ccccc1` as the compound, how does the “growth rescue (activation)” value read?
A: inactive: -3.89%

Q: Which Potency does the source give for `CCOC(=O)C1=CN(Cc2cccc(-c3ccc(Cl)nc3)c2)S(=O)(=O)N(C)C1C` (stereo unspecified) here?
A: inconclusive: 50.1 µM [activator, single point]

Q: Which “growth rescue (activation)” value does the source give for `CC1CCCC(C)N1CC(O)Cn1c2ccccc2c2ccccc21` (stereo unspecified) here?
A: inactive: -12.8%

Q: For `CCCN(CCC)C(=O)CSc1nnc2cc(C)c3ccccc3n12`, which “growth rescue (activation)” value is on record?
A: inactive: -3.78%

Q: With `CCSc1nnc(NC(=O)CSc2nccn2-c2cc(C)cc(C)c2)s1` as the compound, how does the “growth rescue (activation)” value read?
A: inactive: -10.5%

Q: With `Cc1ccc(NC(=O)Cn2nnc3sc4c(c3c2=O)CCCC4)c(C)c1` as the compound, how does the “growth rescue (activation)” value read?
A: inactive: -14%

Q: For `COCCOc1ccc(C(F)(F)F)cc1NC(=O)c1ccccc1`, which “growth rescue (activation)” value is on record?
A: inactive: -0.643%

Q: For `CC(C)CCNC(=O)C(CC(C)C)N(Cc1ccc2c(c1)OCO2)C(=O)c1snc(C(N)=O)c1N` (stereo unspecified), which Potency is on record?
A: inconclusive: 39.8 µM [activator, single point]

Q: Which Potency does the source give for `CC(C)(C)c1ccc(Cn2nnc3c(=O)[nH]c(C4CCCN(C(=O)Cc5cccs5)C4)nc32)cc1` (stereo unspecified) here?
A: inconclusive: 39.8 µM [activator, partial curve, poor fit]

Q: For `COc1ccccc1CNC(=O)c1cc2ccc3ccc(C)[nH]c3c2n1`, which “growth rescue (activation)” value is on record?
A: inactive: -0.39%

Q: With `O=[N+]([O-])c1ccc(/C=N/NC(=S)Nc2ccccc2)o1` as the compound, how does the “growth rescue (activation)” value read?
A: inactive: 24%

Q: Which Potency does the source give for `CC(C)N(C(=O)CSc1nnc(NC(=O)c2cccs2)s1)C(C)C` here?
A: inconclusive: 0.891 µM [activator, full curve, poor fit]

Q: With `Cc1[nH]n2c(=O)c3c(nc2c1-c1cccc2ccccc12)CCC3` as the compound, how does the Potency read?
A: inconclusive: 50.1 µM [activator, single point]

Q: With `Cc1ccc(NC(=O)CN2C(=O)NC(C)(c3ccc(Cl)cc3)C2=O)c(Br)c1` (stereo unspecified) as the compound, how does the Potency read?
A: inconclusive: 0.794 µM [activator, full curve, poor fit]

Q: With `CCN(CC)c1ccc2nc3c4ccccc4c(=O)cc-3oc2c1` as the compound, how does the “growth rescue (activation)” value read?
A: inactive: 2.55%

Q: For `Nc1c(C(=O)Nc2ccccc2)sc2nc(-c3ccco3)ccc12`, which Potency is on record?
A: inconclusive: 17.8 µM [activator, partial curve, poor fit]

Q: For `Cc1ccc2cc3cc(C(=O)N(C)c4ccccc4C)oc3nc2c1`, which “growth rescue (activation)” value is on record?
A: inactive: 3.01%

Q: Which Potency does the source give for `O=S(=O)(Nc1cccc(-c2cn3c(n2)SCC3)c1)c1ccc(F)cc1F` here?
A: inconclusive: 35.5 µM [activator, single point]

Q: Which Potency does the source give for `CCn1cc(C(=O)Nc2ccc(C(C)C)cc2)c2cc(OC)c(OC)cc2c1=O` here?
A: inconclusive: 31.6 µM [activator, partial curve, poor fit]

Q: Which Potency does the source give for `CCOc1ccc(-n2cc(-c3ccccc3)c3c(=S)nc[nH]c32)cc1` here?
A: inconclusive: 50.1 µM [activator, single point]
